PubChem BioAssay AID504339 (National Center for Advancing Translational Sciences (NCATS), 2011)
In all, about 390,000 compounds went through this assay and about 17,000 (4.4%) were called active. Inconclusive means that the source gave no clear call. Such entries were picked first, then a sample of the others. Calls follow the shape of the dose curve; as a rule, active = well fitted inhibition curve with a large enough effect; inconclusive = small, poorly fitted or top-dose-only effect; inactive = no such curve, though single readings can be large or run the other way. Where the call is inconclusive, the potency comes from a doubtful curve fit.

Molecular target: Lysine-specific demethylase 4A (Homo sapiens) (UniProt O75164)
Sequence of UniProt O75164 (O75164 whole entry, looked up, the tested form may be a part): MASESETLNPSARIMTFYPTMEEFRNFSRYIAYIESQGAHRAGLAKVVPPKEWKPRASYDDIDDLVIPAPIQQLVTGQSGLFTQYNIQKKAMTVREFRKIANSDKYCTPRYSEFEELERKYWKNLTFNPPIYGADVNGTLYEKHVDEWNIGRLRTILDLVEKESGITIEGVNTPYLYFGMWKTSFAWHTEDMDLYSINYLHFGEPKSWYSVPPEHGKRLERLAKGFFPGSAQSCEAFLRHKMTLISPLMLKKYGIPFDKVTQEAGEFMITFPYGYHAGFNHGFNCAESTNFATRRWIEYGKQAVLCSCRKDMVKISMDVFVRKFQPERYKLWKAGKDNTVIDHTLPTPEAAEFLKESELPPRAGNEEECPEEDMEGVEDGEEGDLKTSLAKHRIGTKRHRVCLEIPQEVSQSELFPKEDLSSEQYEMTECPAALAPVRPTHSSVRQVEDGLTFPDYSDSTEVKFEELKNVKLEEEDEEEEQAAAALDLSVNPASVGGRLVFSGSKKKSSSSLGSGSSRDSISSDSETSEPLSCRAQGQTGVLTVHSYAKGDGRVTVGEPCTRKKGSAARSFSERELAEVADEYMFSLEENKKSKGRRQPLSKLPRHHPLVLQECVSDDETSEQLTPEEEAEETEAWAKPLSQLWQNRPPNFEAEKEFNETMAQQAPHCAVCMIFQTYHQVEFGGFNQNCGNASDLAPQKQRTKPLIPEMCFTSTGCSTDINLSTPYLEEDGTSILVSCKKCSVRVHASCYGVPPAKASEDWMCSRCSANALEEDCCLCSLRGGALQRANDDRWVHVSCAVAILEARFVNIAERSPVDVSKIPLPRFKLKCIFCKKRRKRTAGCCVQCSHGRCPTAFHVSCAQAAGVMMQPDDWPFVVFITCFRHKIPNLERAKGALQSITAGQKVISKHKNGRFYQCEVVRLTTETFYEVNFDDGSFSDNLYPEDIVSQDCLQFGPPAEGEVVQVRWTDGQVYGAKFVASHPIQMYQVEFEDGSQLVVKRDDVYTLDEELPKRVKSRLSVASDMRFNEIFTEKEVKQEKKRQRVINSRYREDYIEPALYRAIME
Assay: qHTS Assay for Inhibitors of JMJD2A-Tudor Domain; also: nearly all actives have a fitted effect of over 50% in size
Details: AlphaScreen JMJD2A-Tudor / H3K4me3 peptide binding; activity change, negative = inhibition: at 114 µM (top of the series)
% is scaled to controls: 0 for no effect and ±100 for the full control effect; potency is read from the fitted curve at half-maximal effect; tags tell the direction and shape of the fitted curve.

Potency, inconclusive:
O=[N+]([O-])c1cc(Br)c(O)c(/C=N/Nc2nc3ccccc3s2)c1 56.2 µM [inhibitor, partial curve]
COc1cccc(C2C(C(=O)Nc3ccccc3)=C(C)Nc3nc(-c4ccccc4)nn32)c1OC (stereo unspecified) 28.2 µM [inhibitor, full curve, poor fit]
CC1CCN(c2nc3ccc(C(=O)N4CCN(Cc5ccc6c(c5)OCO6)CC4)cc3s2)CC1 44.7 µM [inhibitor, partial curve]
COc1cccc(N2CCN(CC(=O)c3c[nH]c4ccc(OC)cc34)CC2C)c1 (stereo unspecified) 56.2 µM [inhibitor, partial curve, poor fit]
COc1ccc(NCc2n[nH]nc2-c2ccccc2)cc1Cl 56.2 µM [inhibitor, partial curve]
CCN(CC)CCN(C(=O)c1ccc2c(c1)OCCO2)c1nc2cc(C)cc(C)c2s1 35.5 µM [inhibitor, partial curve]
CCCCC1=CC2=C(c3ccco3)C(=O)C(C)(OC(=O)c3ccc(OC)cc3)C(=O)C2=CN1CCCCO (stereo unspecified) 56.2 µM [inhibitor, partial curve]
O=C(CN1CCN(c2ccccc2F)CC1)Nc1nnc(C(F)(F)F)s1 35.5 µM [inhibitor, single point]
C[C@@H]1C=C[C@](Cc2ccccc2)(C(=O)NCCc2c[nH]c3ccccc23)N1C(=O)c1ccccc1 14.1 µM [inhibitor, full curve]
O=C(N/N=C/c1cc(Br)c(Br)o1)c1cccnc1 70.8 µM [inhibitor, single point]
NS(=O)(=O)c1ccc(N/N=C/c2cn(-c3ccccc3)nc2-c2cccs2)cc1 28.2 µM [inhibitor, single point]
Cc1ccccc1NCC(=O)N/N=C\c1ccc([N+](=O)[O-])s1 79.4 µM [inhibitor, partial curve]
CC(C)(C)c1cc(CN2CCCC(O)C2)c(O)c(C(C)(C)C)c1 (stereo unspecified) 44.7 µM [inhibitor, full curve, poor fit]
Cc1cc(NC(=O)c2ccccc2F)ncc1NC(=O)c1cccs1 15.8 µM [inhibitor, full curve]
CCOC(=O)Cn1c(CCC(=O)O)ccc1-c1ccc(F)cc1 56.2 µM [inhibitor, partial curve]
Cc1nc2ccccn2c1C(=O)NN=C1C2CC3CC(C2)CC1C3 3.98 µM [inhibitor, single point]
CC(C)NC(=S)n1cc(C(=O)c2cc(Cl)cc(Cl)c2O)cn1 44.7 µM [inhibitor, partial curve]
COc1ccc(CNC(=O)CCC(=O)N2CC3CCCN3c3ccccc32)c(OC)c1 (stereo unspecified) 89.1 µM [inhibitor, partial curve]
Cc1cccc(C[C@H](C(=O)O)N2C(=O)c3ccc(C(=O)O)cc3C2=O)c1 100 µM [inhibitor, single point]
COc1ccc(/C(C)=C2\SC(=S)N(CCC(=O)O)C2=O)cc1 89.1 µM [inhibitor, partial curve]
O=C(c1ccc(CS(=O)Cc2ccccc2Cl)o1)N1CCN(c2cccc(Cl)c2)CC1 (stereo unspecified) 63.1 µM [inhibitor, partial curve]
O=C(N/N=C/c1ccc2ccccc2c1)c1ccc(COc2ccc3c(c2)CCC3)o1 89.1 µM [inhibitor, single point]
Fc1ccc2ncc3c(-c4ccccc4)n[nH]c3c2c1 89.1 µM [inhibitor, partial curve]
CC[n+]1c(-c2ccc(C)cc2)csc1Nc1c(C)n(C)n(-c2ccccc2)c1=O 25.1 µM [inhibitor, single point]
O=C1C(Cl)=C(NCc2ccco2)C(=O)c2ccccc21 10 µM [inhibitor, full curve]
COc1ccc(NC(=S)N(CCCN2CCOCC2)Cc2cn(C)c3ccccc23)cc1 63.1 µM [inhibitor, partial curve, poor fit]

Potency, inactive:
COc1ccc(C)cc1NC(=O)c1ccc2c(c1)CCN2S(=O)(=O)c1ccc(Cl)cc1
CC(C(=O)O/N=C(\N)c1cccnc1)c1ccc([N+](=O)[O-])cc1 (stereo unspecified)
CC1(CCc2ccccc2)NC(=O)N(CC(=O)Nc2ccccc2)C1=O (stereo unspecified)
CCCCN1C(=O)C(=O)N(CC(=O)N2CCc3ccccc32)C1=O
C=C(C)Cn1c(N2CCCC2)nc2c1c(=O)n(C)c(=O)n2C
COc1cccc2sc(N(CCN(C)C)C(=O)/C=C/c3cccs3)nc12
CC1CCCN(Cc2c(C(=O)N3CCc4ccccc4C3)nc3ccc(Cl)cn23)C1 (stereo unspecified)
CSCCC(NS(=O)(=O)c1ccccc1F)C(=O)NCC(C)(C)N1CCOCC1 (stereo unspecified)
Cc1cc(C)cc(OCc2ccc(C(=O)Nc3ccccc3F)o2)c1
Cc1cccc(C)c1-n1nnnc1SCC(=O)N1CCNC1=O
CN(C)/C=C/C(=O)c1ccccc1
N#CCCCSc1nnc(CSc2nc3ccccc3s2)n1-c1ccccc1

Potency, active:
Oc1ccc(CNc2ccccn2)c2cccnc12 39.8 µM
O=C(CSc1ccc(-c2ccccn2)nn1)NC1CCCCC1 3.55 µM
O=c1c2ccccc2sn1-c1ccc(F)cc1 12.6 µM
c1ccc(-c2ccccc2OCCCCN2CCCCCC2)cc1 22.4 µM
CCC(C)NCCOc1ccc(Br)cc1 (stereo unspecified) 3.55 µM
CC1CCCC(C)N1C(=O)CNCc1ccc2c(c1)OCO2 (stereo unspecified) 50.1 µM

Activity change, negative = inhibition, inactive:
Cc1nc(SCc2cccc(C(=O)O)c2)nc2c1CCCC2 -0.752% [at 11.4 µM]
CC1=C(C#N)C(c2cccnc2)C2=C(CCCC2=O)N1 (stereo unspecified) 2.05% [at 11.4 µM]
